Experimental data: the supplement of paper PMC7826260
This is one part of the list. Each Rep nickase domain was tested in vitro on the same pool of single strands (3 µM enzyme, 1 h, 37 °C); shown is the middle of each 90-letter strand. A value is the log2 ratio of uncut reads to the pool without enzyme; the lower, the more was cut; hits are not called. Shares of all reads are compared; uncut strands gain when others are lost, and binding without cutting may add a little.

These sequences were tested on T1, Rep nickase domain of tomato golden mosaic virus (assay: uncleaved DNA left, log2 of reads against the no-enzyme library (log2 ratio); higher = less cleavage (more negative = more Rep cleavage of the k-mer); sequences stand for … in CTCGTCCG…ACCGGAGA).
T1 sequence (residues 1-124 of Rep, tag left off): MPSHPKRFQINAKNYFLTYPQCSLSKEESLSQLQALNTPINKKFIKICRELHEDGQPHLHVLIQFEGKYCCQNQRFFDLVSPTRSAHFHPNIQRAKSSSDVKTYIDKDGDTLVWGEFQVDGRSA
Protocol: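 A pool of 90-nt single-stranded DNAs with seven random bases just before the constant AC of the nick site (name = the seven bases) was cut by 3 µM recombinant His6-SUMO-tagged Rep nickase domain (300 nM DNA, 50 mM HEPES pH 8.0, 50 mM NaCl, 1 mM MnCl2, 1 h, 37 °C, three replicates). Uncut DNA was amplified and sequenced.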

Sequence	uncleaved DNA left (log2)
GAGACCT	0.111
AGCCTCT	0.0254
CAAGTGG	0.0457
AGCTAGC	0.000858
GTCAACA	0.0454
CCTGCTA	-0.0101
TAAAGGG	0.11
TTGTCTT	-0.148
CGATAAG	0.126
GTCTACC	0.0374
CCCCATA	0.0109
ATTTCCG	-0.00285
GCAACAC	0.0569
GGCCTCT	-0.131
CCACGGT	0.132
ACTCTCT	-0.0614
TGGAGAA	-0.0336
AGGTTTT	-0.0271
AGAGGTA	0.164
GGGCCGT	-0.0114

Sequence	uncleaved DNA left (log2)
GGTAAGC	0.0141
GAGGGTA	0.096
CGATAAC	0.0754
GCTTATG	-0.0398
AGACCAT	0.124
TATGCAC	0.0497
AGGAACG	-0.00385
TTAAGGT	0.0635
TAGTTCT	-0.66
GGCCTGT	0.0989
GTTACAA	0.128
GCAGTTG	0.0135
CAGGTAA	0.0522
TTCCGGA	0.0779
AAGCATC	-0.0608
CGCATGA	0.104
TGAGCAA	-0.0499
GAACGTT	-0.0638
TCAAACG	-0.0641
ACTGAAT	0.0379
